According to publication PMC10726135:
The list shows a part of the results. At the low end of the ranking the order means little. Measured with an extract: partners may take part in the binding.

Biological target: T1, HNF4alpha8 (COS-7 nuclear extract) (UniProt P41235-5)
T1 sequence: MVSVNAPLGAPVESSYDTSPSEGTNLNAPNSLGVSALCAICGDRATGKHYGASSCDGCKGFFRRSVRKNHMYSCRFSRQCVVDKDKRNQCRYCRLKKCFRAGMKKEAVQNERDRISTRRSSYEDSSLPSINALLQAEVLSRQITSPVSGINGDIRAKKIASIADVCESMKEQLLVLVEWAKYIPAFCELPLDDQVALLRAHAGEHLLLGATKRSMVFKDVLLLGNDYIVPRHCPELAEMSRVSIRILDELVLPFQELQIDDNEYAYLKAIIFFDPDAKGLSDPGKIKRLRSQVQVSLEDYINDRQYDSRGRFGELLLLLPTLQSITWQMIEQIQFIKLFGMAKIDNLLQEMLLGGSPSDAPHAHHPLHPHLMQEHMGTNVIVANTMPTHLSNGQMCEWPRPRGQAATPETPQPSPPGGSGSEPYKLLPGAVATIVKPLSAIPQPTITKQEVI
Assay: protein-binding microarray
Settings: COS-7 nuclear extract on double-stranded Agilent 4x180k PBM; binding buffer, salt, pH and temperature not given; high values mean tight binding; double strand, one strand shown; sequences stand for … in …GCCTAGGGAGATTAGAGTATCGGTCGA

| Sequence | binding signal (log2 normalized intensity) |
| --- | --- |
| GGCAAAGGTCACAGCATTAGAGCAACCAGA | 0.444 |
| GATCAAAAACTGCCTAAATCCAAAGGGCAT | 2.44 |
| ATAACACCTATGTGCAAAATACCTGGAAGT | -0.811 |
| TTCAATATACAGTTGGTATTTAGTAAATAT | 1.39 |
| CTCACACACACACACACACAGCTTGGAGCT | -1.34 |
| ACTCAATGCTGCTGATGCAGAGGGTGCAAA | 0.744 |
| TTTTTTTTTTGAGATGGAATCTTGCCCTGT | 3.54 |
| TCATAAAACACCCACCTTGTTATCTTGTCT | 1.34 |
| GCATGAGACTGAAATTCCTTGACCCTGAAA | 2.12 |
| GAGAATTAAACTGCCGCGCCACTGCGTCCA | -1.31 |
| TTTGACATCACCTAACTTGTGGCTGGGTGA | 1.15 |
| GGGCAGCTCCGTTTACCTAGAGGCAGGCGT | -1.24 |
| TAGAATTGCACTGCAAAGAAGTCAAACTTT | 1.07 |
| GATAACATCTGGACTTTACACAGACCTTTA | 4.07 |
| ACTTAAGTCTCAAAGGTCAGATGACAGAAT | 4.77 |
| CTGGCTTTCTTTGGAGTCAATCTGCAAAGG | 1.18 |
| ACATGGAATGTCGTGCCCTAATCTCACTCT | -0.136 |
| ACAGATCAGATATGAGATTCCCAGAGAGCT | -1.32 |
| GCCTCACACCCTCTAGGGTAGATAAGGATG | -0.448 |
| AGATTAATGTCAGCCTGCTCAGGGAGAAGC | -1.33 |
| ATACTGCAGCTCTGCGTCTTACTAAATGCA | -1.18 |
| TGTGTCTTATTTATCTTCACATTCCATCAT | 1.3 |
| GATGGGGGTGGGAGGCTGGGAGGAGGGTAA | -1.39 |
| TAGCATGAATTTGGTACCTCCCCCCACACC | 5.55 |
| GAAAAGGAAATATCTTCGTATAGAAACAAG | -0.949 |

| Sequence | binding signal (log2 normalized intensity) |
| --- | --- |
| GCAAACCTGCCCTTTGCTCCAGAGGAAGAT | 3.81 |
| ACCCATATCTGACTGATGCTAAAGTCTACA | 1.72 |
| CCACCTGGAATGTGCTCCCGACTGCTCCAC | 0.00529 |
| ACTAAGATTTGACTGGAATGTCAAAGGGAC | 1 |
| CAGAAACCTCATTGTGATGTGTGCGTTCAT | 1.2 |
| AACTCCAAGATTAGTGGGAAAGCTATTGCT | -1.32 |
| CGAGCATGGCCGCTCCGCGAGGTGAGCCAT | 1.32 |
| GATCAATGAATACATGAGTGATCCTGAAAA | 1.01 |
| TCAGAAATGCATGAGTGACCTTTATCCAGT | 5.8 |
| CCTCATTTTTCCTGGATGCCAGGCAAGAGC | 0.294 |
| GGAGGAGACTTTGACCTCTGCTAGGTTTGG | 5.5 |
| GTGCCCTCATAAGAGACTTTGCCCTTTTTT | 6.35 |
| TGGGAATGGAGAGAGAGAGAATAGCTCAGG | -1.4 |
| TTACAAGGAGATATGCACTTGCCCTTTGGT | 4.59 |
| TGGCAAAGCTATTCACTTTTTGGCCTTTGG | 3.87 |
| AAGATGACCAGCGTGTGGCGCCATTTCAGG | -1.38 |
| CTTGAGGACAGGCCAAATCCAGTAAGGCAC | -1.24 |
| GGAGAGGTGGAGAAAGGCAGAAGGTTCCAG | -1.11 |
| TCAGGGCCACGGGAAAACCTGACTGCGCTC | -1.3 |
| TGCATGCAAAAAGGCTGACCTTTGACTCTC | 8.15 |
| TGGATACAGGGTAGGGCCAACCAACCCAAC | -1.38 |
| TCAAGTGATCGAAGGTCAACTTATCAGCAT | 3.89 |
| GGGACAAGCACATTAGGAGGAAAAAGAATG | -1.33 |
| TGAAGGTAGGACAGGGTGATCAGAGATCTA | -1.3 |
| ATAAATAAAGCCCTGGGGTAATAAAAGTGT | -0.134 |

| Sequence | binding signal (log2 normalized intensity) |
| --- | --- |
| GGCCGCTCTCCCTCCAGGCCCCAGCCACGC | 2.23 |
| TCAGGAGAGCATCTGAGTGTCAAAAACAAT | -0.366 |
| GCCCTTAAAGGCTTTTGCAAGAAAACCAGC | -1.07 |
| GGTGGGCTGCTCCCAGTGCCCTTTGAACTC | 8.91 |
| AGTCCAAGTTCCACATCAAGCACATTCCAG | -1.23 |
| TTATGGCCACTGTGTGTGTGTGTGTGTCTG | 2.74 |
| CCCCACCCCCACTGCCTGACCCCAAGTAAT | 7.09 |
| TGCTTCAGCAAAACCAGTTTGTCTGATCTT | -0.615 |
| CAAGGTCCCATGGCTAATCTGTGACTGAGC | -1.1 |
| GTGATCAGAGATCTAGGTGAGGGATGAGGA | -1.33 |
| CAAAGGACAATAATGAATAAGCACGTTAGA | -0.992 |
| AAGGGGAAATATGTAGGTTTGGGGAACTTT | 1.7 |
| GTCAAAAATTTGTGTGTAACATTTGACTTC | 1.97 |
| GCGGCTGCAAATTCTGCATTTTTCTTTCCT | -1.39 |
| CCCCTTGGCTACATGTTTGTCTTTCAAACA | 1.34 |
| TGGGCCCCACAGTGCATCTGATAAGGTTGT | 0.409 |
| GACAAAGGTCATTCATGTGCAGGTTGGAAT | 3.11 |
| TGTGAATGAAAGAGACTAGTATGTAAATAA | -0.396 |
| CTTGGAGGCGGCGGCTCCGGGAGCTGGCGG | -1.31 |
| TTGATGGTTAAAGTCCAATCTTCTGGCCCC | 5.12 |
| CCAGGTCGGGCCGGAGAGGCTTATTCCGTA | -1.37 |
| TATGGACCTTGTCCCTGGATTGTGTTGCAC | 3.35 |
| GGAGGACTTTGGAATGGCAGTGCTTGTCCA | 2.52 |
| TCTGGTGCCAAGGAGCCTCTGCAACCTTTG | 3.43 |
| GGGACTGTGCAGACAAGATATGAGGCCAGT | -0.346 |

| Sequence | binding signal (log2 normalized intensity) |
| --- | --- |
| CCCAGATGGAGTGCTCTGAACCGTGTACCT | 2.23 |
| TCCCATCTTGCAGCTGACCCTGGCCGGAAA | 2.05 |
| CTGAGAAGATGAAAGACGAAAGGGACTTTG | 2.82 |
| ACAGAAGGCAGAGATTTGAGTCAACCCAAC | -1.15 |
| GCAGGCTTAGCTGGGCTAGCACCTGTGGAT | -1.3 |
| TACTTTGCTCTCAGCACACTCTGGTACCAT | -0.259 |
| TCTCACATCTGATAGCTAAACCAGATACGT | -0.926 |
| GGTGGTGACAAAGACAGATTAGATCTGCGT | -1.31 |
| CAGCGACTGAGCTGAGGTTAGAATCCTTAT | -1.27 |
| TAGAAGTATGTCTGGGATTTGAAGGAGCAG | -1.3 |
| CTCTCGCCGAGGCCCCAGGAGACCCCGCGA | 2.25 |
| CACATTCCAGCTCTGTGACTTTACCTGAAA | -0.734 |
| TCTCTCAAGGTTCCCAGCTAAATAAATAAC | -1.1 |
| TTGCGAGGTTCCATGGTGTAATGGTTAGCA | 1.64 |
| GGATCAAGTGGCAATAAACTCCGTTATCAC | -0.696 |
| GAGTCCAGAGGTCAAGGCTGCAGCGAGCCA | 3.14 |
| TGAAAGAGCTCAAATGACAGAACAGTCCAG | -0.801 |
| AGAACCCATGCTCTTTGGCCTGGCATTTGA | 1.44 |
| ACAATGATGAAAGGAGCTTGGGAAGACAGA | -1.33 |
| GGATTATCACTGAATCGAGGCTATTCTGTA | -1.03 |
| CAAAAAGTTGGTTGGAGCTATGGGCAGAAA | 0.196 |
| AGCACCAGGGATAGCGCCCACACTGCCCAT | -1.26 |
| CCCCCACACCATTAGAGAACATGTACTTTG | 3.66 |
| ATCTGCCAACAGAGTCATCACAATAGGGAA | -1.32 |
| TTACCATGCCAGAACTTCTCATCTTATCTA | -1.33 |

| Sequence | binding signal (log2 normalized intensity) |
| --- | --- |
| ACAGGACAAATCAAGTGAAATGCCAACGGC | -1.26 |
| TCTGCTTGCCATTAATGAAAACTGCACTTC | 2.38 |
| AGCGAGTTATCTGCATTCCAGCTCAATCAA | -1.09 |
| TAAAGGCTTTTGCAAGAAAACCAGCATGGT | -1.34 |
| CTGGGTTCAGTTACGGGGTGGTTTATCTGC | 0.702 |
| GATAAAAGTGAGCAATGCTGAGTATGCAGC | -1.09 |
| AGGGCCTCTCTTCTTGTAATCCCATTTCCC | 1.09 |
| CTAGGAGAGTGGACTCACAGCAGGAGGGCT | -1.48 |
| AGGTACAAACATACTTAGGATTTTTGTGCC | 0.618 |
| ACAATCTGAAGTCCCCTGTGCTTTGGCCAA | 1.38 |
| AAGGCAGATTTCTGTCTTTGATCTGCTATC | 0.517 |
| TATGCTTTTATTTAACTTCTGGGGGCAAGG | 2 |
| TGCTTATCAGTGTACCTGTCCCTACTCAAT | 0.884 |
| CAGGAGTGGGAGAAAGCTTTGGACTTTGGG | 5.45 |
| ATGTCCTTTGGAGTGCTTTCATCTTTGCGG | 0.566 |
| CTGGGGTCAATAGTTGTGTAAATAGCTCAG | 1.17 |
| CAAACAAGTCAATGAGCATTTCACAATTCG | -1.2 |
| TCTCTTTGTTGACATCTGCTTCCAAAGAGC | 0.456 |
| GCAGCGAGGACAACCAGAGGTCACTTTTAT | 3.02 |
| CAATCCTGGAGAAGGAGCACCAATGACCTT | 4.02 |
| CGATATTAATGGTGACCCCTCAGTTTTTCT | 3.38 |
| TGGCCTGGGAACTTAGCGATTTGGAACCCA | 1.34 |
| TTGCCCTTTCCTAGACGTAAGACAACATCT | 1.12 |
| GCTGACTGGTTGGAATTCCAGTGTTCACAT | 1.73 |
| GGAGGCTGAGGTGGAAGGATCACCTGAGTC | -0.947 |

| Sequence | binding signal (log2 normalized intensity) |
| --- | --- |
| GCGGCGCTGACCCCGGGAGCAGCATGGCCC | 2.54 |
| TGCATAATGGAGCAAAGGTCATCCTGGGCT | 5.12 |
| AGAGCAATCATGGGCCCACAGATGATCAAA | -1 |
| ACAAAAACCAAAGGTCACTTCGCATTTCCA | 4.02 |
| TAAAAGGTCCAGAGTTCACTGCAGGCTGGG | 3.73 |
| GGCGCAGTCCTCTCTCGCGAGAGCCGAAGT | -1.33 |
| CAGGTCAAAAGTTCAAACTTTATTTGATGA | 3.81 |
| TAATCTTCCTTCGGGATTATGGTAGGCAGC | -0.922 |
| ACCTTTAAGCCTATAGTTTCTGTTTTGATC | 2.09 |
| TTTAAAGTATCCCATCCATTTCCCATCCCC | 3.52 |
| CAGTGTTTGCTTTAGATTTTCTCACTCTAA | -0.0636 |
| AGCATTGTGCTGAAAAGACTTCACAATCAA | -1.32 |
| GAAAGGGCAGAATCTAGGATAACTCTAGTG | -1.38 |
| TTGCAGGCTGATAGGCAGAAGGGACTAGCC | -1.3 |
| TGGACTCTGACCCATTCCTTCTCACCGGGT | 4.55 |
| GAACGGGTCAAGAGGGACAAAATGCCCAGG | -1.26 |
| TTAGGCTGATGCCCTTTGGATTTAGGCAGT | 3.84 |
| GCCTGAACAAACATGAGGGACTGGGAAGAG | -1.34 |
| TTTGAACATTTTAACACAGGACAAATCAAG | -0.565 |
| GAGACTGGAGAGACCAAAGGGTGAAATAGG | -0.126 |
